Measured values: PMC4336329 (PLoS ONE, 2015)
Hit rate of the full screen: of about 310,000 compounds, about 14,000 (4.5%) showed an effect of 50% or more. The effect is printed as a negative number. The list shows a part of the results.

Each compound was assayed against human ether-à-go-go-related gene (hERG) potassium channel (human, UniProt Q12809) (assay: primary screen, population patch clamp on CHO cells stably expressing hERG).
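Note: peak tail current of the secondary pulse compared with the same well before compound.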

human ether-à-go-go-related gene (hERG) potassium channel, sequence (Q12809 whole entry, looked up): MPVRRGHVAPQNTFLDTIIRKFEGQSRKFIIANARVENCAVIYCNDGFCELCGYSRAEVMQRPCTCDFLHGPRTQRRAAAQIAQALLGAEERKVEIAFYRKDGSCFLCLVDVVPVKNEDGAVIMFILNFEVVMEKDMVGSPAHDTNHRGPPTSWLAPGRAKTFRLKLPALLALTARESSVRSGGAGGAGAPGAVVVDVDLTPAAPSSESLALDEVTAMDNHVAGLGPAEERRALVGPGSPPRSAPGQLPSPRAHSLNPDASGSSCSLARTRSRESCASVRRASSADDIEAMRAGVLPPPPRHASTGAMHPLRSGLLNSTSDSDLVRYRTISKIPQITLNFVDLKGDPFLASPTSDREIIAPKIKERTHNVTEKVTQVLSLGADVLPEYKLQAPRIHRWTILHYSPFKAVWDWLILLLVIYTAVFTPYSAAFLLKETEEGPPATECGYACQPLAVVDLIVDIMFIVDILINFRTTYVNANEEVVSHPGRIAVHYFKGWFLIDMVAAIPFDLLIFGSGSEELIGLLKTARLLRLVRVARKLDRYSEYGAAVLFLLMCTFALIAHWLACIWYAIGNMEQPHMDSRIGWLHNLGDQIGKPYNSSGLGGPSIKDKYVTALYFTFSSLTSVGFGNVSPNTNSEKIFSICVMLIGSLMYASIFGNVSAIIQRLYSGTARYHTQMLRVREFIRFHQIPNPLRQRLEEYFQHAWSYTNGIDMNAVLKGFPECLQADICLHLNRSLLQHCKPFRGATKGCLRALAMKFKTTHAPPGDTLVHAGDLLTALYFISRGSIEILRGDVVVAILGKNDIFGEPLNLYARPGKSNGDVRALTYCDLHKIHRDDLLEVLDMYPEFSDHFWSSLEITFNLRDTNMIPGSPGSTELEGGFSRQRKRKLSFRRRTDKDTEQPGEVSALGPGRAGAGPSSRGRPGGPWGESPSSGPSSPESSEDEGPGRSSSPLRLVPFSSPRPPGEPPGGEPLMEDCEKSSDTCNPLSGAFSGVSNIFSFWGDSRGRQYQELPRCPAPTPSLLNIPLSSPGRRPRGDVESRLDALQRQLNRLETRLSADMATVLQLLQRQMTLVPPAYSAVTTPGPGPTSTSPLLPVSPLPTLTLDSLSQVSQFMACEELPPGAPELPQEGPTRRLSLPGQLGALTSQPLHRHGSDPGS

Point of comparison: CC(C)c1c(O)nc(SCCOc2ccc(Cl)cc2)[nH]c1=O, “hERG current change (%, negative = inhibition) at 10uM” value -1.69%. Against it:
- COc1cccc(C(O)c2nc3ccccc3n2C)c1 (centres unmarked) — higher, 3.27%
- NC(=O)c1cc([N+](=O)[O-])cc2c1C=Cc1ccccc1O2 — higher, 2.92%
- Cc1ccc(NC2=NC(c3ccccc3)n3c(nc(C)cc3=O)N2)cc1 (centres unmarked) — higher, 0.493%
- COc1ccc(Cl)cc1NC(=O)CN(C)C(=O)CCc1nc2ccccc2c(=O)[nH]1 — lower, -34.6%
- C=CCn1c(SCC(=O)Nc2cccc(S(=O)(=O)N(C)c3ccccc3)c2)nnc1C1CC1 — lower, -69.8%
- Cc1oc2ccc(OC(=O)N3CCOCC3)cc2c1C(=O)OC(C)C — lower, -6.3%
- O=S(=O)(NNc1ccc(Cl)nn1)c1ccc(F)cc1 — lower, -4%
- CCC1=Nc2cc(C(=O)NCCN3CCCC3)ccc2Sc2ccccc21 — lower, -52.1%
- Nc1ccc(C2(c3ccc(N)cc3)c3ccccc3-c3ccccc32)cc1 — higher, 6.06%
- CCOC(=O)c1c(-c2ccc(C)s2)csc1NC(=O)c1cccs1 — lower, -5.14%
- Fc1ccc2c(c1)C1C=CCC1C(c1cc3c(cc1Br)OCO3)N2 (centres unmarked) — higher, 4.83%
- O=C(Nc1ccc2ncccc2c1)c1cc(Cl)ccc1Cl — higher, 12.6%
- CCOc1cc(C)c(S(=O)(=O)NC2CCCCC2)cc1C — higher, 1.83%
- O=C(O)c1ccc(N/N=C/c2ccc(-c3cc(Cl)ccc3Cl)o2)cc1 — higher, 8.2%
- O=C(NCc1nc2ccccc2[nH]1)c1ccc(S(=O)(=O)N2CCCC2)cc1 — higher, 1.92%
- O=C(COC(=O)c1cccc(S(=O)(=O)N2CCCC2)c1)NCc1ccccc1 — lower, -10.4%
- CSc1ccccc1NC(=O)c1cccc(S(=O)(=O)N2CCN(C)CC2)c1 — higher, 4.73%
- O=C(OCc1c(F)cccc1Cl)c1cnc2ccccc2n1 — higher, 17.6%
- Cc1cccc(NC(=S)N/N=C/c2cccc([N+](=O)[O-])c2)c1 — higher, -0.54%
- Cc1ccsc1/C=C1\CCc2ccccc2C1=O — higher, 17.2%
- CCS(=O)(=O)N1CCC(C(=O)N2CCc3ccccc3C2)CC1 — higher, -0.753%
- O=C1CC(N2CCOCC2)C(=O)N1c1ccc2c(c1)OCO2 (centres unmarked) — lower, -6.05%
- CC1C(c2ccccc2)N(C)C(c2ccccc2)CC1(O)c1ccccc1 (centres unmarked) — lower, -2.31%
- O=C(Nc1ccccc1C(F)(F)F)C1CCN(C(=O)Cc2ccccc2)CC1 — higher, 18.3%
- Cc1cc(C)n(-c2ccc(NN=C(C#N)C#N)cc2)n1 — lower, -38.7%
- COc1cc(C(CC(=O)Nc2cccc(C)n2)N2Cc3ccccc3C2=O)cc(OC)c1OC (centres unmarked) — higher, 15.2%
- Cc1nn(-c2ccccc2)c(Cl)c1/C=N/N1CCN(c2ccccn2)CC1 — higher, 30.5%
- CCC(CC)NC(=O)COC(=O)CCC(=O)c1cccs1 — lower, -5.75%
- COCCn1c(SCc2nc(N)nc(Nc3ccccc3C)n2)nc2ccccc2c1=O — lower, -35.3%
- Cl.NCCSSCCN — higher, 5.97%
- CCOC(=O)CSC1=C(C#N)C(c2ccccc2)C(C(C)=O)=C(C)N1 (centres unmarked) — lower, -10.6%
- CN1CCc2c(C#N)c(Cl)nc(Cl)c2C1 — higher, 10.4%
- CCCCNC(=O)c1ccc2c(c1)ncn2C1CCCC1 — lower, -16.7%
- CC(=O)/C(=N\Nc1ccccc1)Oc1ccc(Br)cc1 — higher, 6.11%
- CCn1cc(C(=O)NCCc2ccc(OC)cc2)c(=O)c2ccc(C)nc21 — higher, 7.61%
- COc1ccc(O)c(C(C)(C)C)c1 — lower, -4.9%
- CCC(CC)c1nnc(NC(=O)CCc2ccccc2OC)s1 — higher, 2.09%
- COc1cc(/C=C/C(=O)OCC(=O)c2c[nH]c3ccccc23)ccc1OC(F)F — higher, 10%
- O=C(CSc1nnnn1-c1ccccc1)NCc1cccs1 — higher, 1.6%
- COc1ccc(/C=C/c2nc3ccccc3n2Cc2ccccc2OC)cc1 — lower, -6.12%
- CC(=O)c1c(C)[nH]c(C(=O)OCc2cc(=O)n3cc(Br)ccc3n2)c1C — lower, -3.69%
- COc1ccc(CCNC(=O)c2c(O)c3cccc4c3n(c2=O)CC4)cc1OC — lower, -5.2%
- COc1cc(/C=N/Nc2ccc([N+](=O)[O-])cn2)cc(OC)c1O — higher, 5.77%
